# Source: the supplement of paper PMC11417369
# The other results are listed elsewhere or left out.
# System: PfSIP2 AP2 domain 1 (GST-tagged)
# Experiment: gcPBM binding intensity (ln(normalized median fluorescence intensity)); higher = stronger DNA binding
# Summary of the method: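 Binding of GST-tagged P. falciparum DNA-binding domains, expressed in E. coli and used at about 25 μg on average, was carried out for 1 h in 1× PBS containing 1% milk, 0.2 mg/ml BSA, 0.5% salmon testes DNA and 0.03% Triton X-100. The target was an Agilent 4 × 180k array of primer-extended double-stranded 36-bp intergenic genomic probes plus negative controls, read with Alexa488 anti-GST antibody at 488 nm. Binding intensity is the highest Masliner-normalised natural-log median intensity across replicate spots of either probe orientation.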
row,Sequence,gcPBM binding intensity (ln)
1,AAAAAAACACACACATATATATATATATATATATAT [GTGCAC_negctrl_site498],9.79
2,AAGAAAAAGAATAACCTTATTTCTATATACTAATTT [TGCATGCA_negctrl_site477],6.54
3,ATCAAAATTGTCATTACACACCTTTATTTTTATAAT [CACACA_site5071],7.12
4,TCCACTTAACTCAATTGTACAAAAATAAAAATTAAA [XGTACX_site855],7.17
5,ATAATATATATATATATATTATCAAATATATATATA [GTGCAC_negctrl_site346],8.45
6,TGTGTATATCGATAAAGTACATTTGAAAAGTGACTT [XGTACX_site6957],6.88
7,GTAATATGTATCCATACACACATACAGTTTATTTGC [CACACA_site6540],6.9
8,AAAAAAAACGGACACACACACATTCAATATAAAACA [CACACA_site4189],7.45
9,GTATTAATATATAATTGTACTTTTTTTTTTTTTTTT [XGTACX_site4369],7.64
10,AATAATGAATTGAAATGTACATATTTTTATTAATAC [XGTACX_site8899],7.15
11,TTTTTATATTTTACATGTACATAAATATATTATATA [XGTACX_site958],7
12,ATCACCAAATGGGCTATACAACAATGAGAAATGGTA [CACACA_negctrl_site48],6.91
13,TTCACATGAAGAATTAAAATAAAACTAGGAAATTAA [CACACA_negctrl_site1047],6.74
14,ATACGAAGAAATGTTCATTTATTTCGAACATTTAAT [CACACA_negctrl_site1481],6.65
15,TTTTTCATAAAACACACACACAAAAATAATGTGGAA [CACACA_site3687],6.92
16,AATATAATATAATATAGTACGTAAAAATATTATACA [XGTACX_site2170],7.14
17,TTATTATTTGGTTATAGTACATAATATAATATATAT [XGTACX_site6911],7
18,CTATATTTCGTTGGACGTACAAATGTGATAATTAGG [XGTACX_site3232],7.31
19,TATATATATATGTATGCATGTTGTTTTTTATTTAAT [TGCATGCA_site343],9.27
20,TTTCTTTTTTCACGTGCATGCCATTTAAGTATTAAT [TGCATGCA_site651],7.48
21,TTTGTTTGGTTTTGGTGTACTTTTTTTTTTTTTTCT [XGTACX_site2050],7.16
22,AGAATTCAACAATGTTGTACATACACACACACAAAA [XGTACX_site5035],7.41

row,Sequence,gcPBM binding intensity (ln)
1,GAATTATAAGAATAAACACACAAGCTTAAAAAAAAA [CACACA_site1204],6.85
2,ACATATGTATAATATGCACACGTCATTTTCCCCTTA [CACACA_site5194],7.12
3,ACTAAACTTATATGTACACACATATAACATTAATTT [CACACA_site2258],7.3
4,ATGTATTTATTTTAACGTACAAGATATTATTATTAT [XGTACX_site4609],7.15
5,AAATTATATATGATGTGTACATAAATATATACACAT [XGTACX_site8761],7.14
6,ATATGGCATATTTGTATTATACATACATATGTATCT [TGCATGCA_negctrl_site562],7.07
7,AAATTATAATATAATACACACATAAAAAAAAAAAAA [CACACA_site7],6.94
8,TTATTATTCAAGAGGAGTACATTATGTGTATAATAT [XGTACX_site4995],7.08
9,TATATTTAGAGAGAGACACACAAAGGGACTTACACA [CACACA_site2545],6.93
10,CTAATTGTGTATACCTGTACATATATATATATATAT [XGTACX_site416],9.45
11,AAAAAAAAAAAGAACACACACAGTGCACATTCGGTG [CACACA_site788],10.3
12,TGTTATTCTACATATACACACAAATAACAATTTAAA [CACACA_site1824],7.22
13,TTAACTTTTTTATATGCACACATAAACAAGGATATA [CACACA_site8932],7.78
14,AATACAAAAAAAGGTACACACATAATATATTTATTA [CACACA_site2628],7.11
15,TTTCCCTCAAATAAAGTGCATTATGATTTTAATTTA,8.75
16,TAATTATTTTCGGTACGTACTAATGTATATATAATT [XGTACX_site3895],7.13
17,TAATAATTTTTTTTTTTTTTTTACGAAAATATGATT [GTGCAC_negctrl_site323],6.67
18,ATAATAAGAACTCAGTGTACTATCCTTTGAATTAAC [XGTACX_site8117],6.9
19,AACGTCTTTTTTTTTTTTTTTCTTTTTTTTTTTATT [CACACA_negctrl_site303],6.69
20,TAATTCTTGTAAAATGTGCGCAGTAGATATAGTTTT,7.35
21,AGATATAAGAAAAGCACACACACACTAGAAAAAAAA [CACACA_site5559],7.05
22,ATATTTATTCAATCCAGTACATATTATATATTGTAT [XGTACX_site184],7.07

row,Sequence,gcPBM binding intensity (ln)
1,ATAAAATTATATACGTGTACATATATATATTTATGT [XGTACX_site4653],7.06
2,ACACATCAAATATAAAAAAAAAATAACTATAAATAA [CACACA_negctrl_site587],7.09
3,TATAAAAGTGGACACACACACATATATATATATATA [CACACA_site4673],9.47
4,AATTTTTTTTTTTTGTTGCACTTTTAGAGTTTTAAT [GTGCAC_site9519],8.31
5,CCTTTAAGCAAAAACACACACACATATTTATTTATA [CACACA_site6294],6.99
6,TAATAAATAGGACACACACACATATTTATATATCAT [CACACA_site6771],6.98
7,TTGCAAAATTGTTTTATCACAAATATATACTTAATA [CACACA_negctrl_site403],6.89
8,TTTCTTTTTATATTCACACATAAATATATATATATA [CACACA_site6053],8.54
9,AAAAAAAAAAAACACACACACACATACCCATACATA [CACACA_site5575],7.5
10,TATATAAGGAAATATTGTACTTTTATATTTATATTA [XGTACX_site3814],6.74
11,ATATAAAAATATAATACACACATAAAATATATTATA [CACACA_site969],6.93
12,TGTATGCTTACATAATGTACGGAAAAATAAAGGCAT [XGTACX_site6923],7.59
13,ATATATAAATAATGTTGTACGTATTTCAAAAGTATG [XGTACX_site3363],7.29
14,ATAATAATAATAAAAAGTACAAATTATTATATATAT [XGTACX_site5160],7.35
15,TGCTCTCTCTTGTTGTGTACATAATACAATATATAT [XGTACX_site7427],7.86
16,TACATTTAAAAAAAAACACACATATATATATATATA [CACACA_site2535],9.57
17,ATATATTTGTATAATAGTACGTACAGGCAAAATATA [XGTACX_site7396],7.79
18,TATAACAAAAAAAAATAAAAAATAAAACTATATATA [CACACA_negctrl_site504],6.67
19,TTTTTTTTTTATTCTTCACACATTTCCAATAAAAAA [CACACA_site5601],7.13
20,ACCTAAAATAACTACACACACATAAAAAAAAAAAAA [CACACA_site2529],7.27
21,GTTATTATATATATGTGTACTTAAAAATTTTATGTC [XGTACX_site6084],7.41
22,AAAAAAAAAAAAAAAACACACAGAAATATATATATA [CACACA_site4611],8.8

row,Sequence,gcPBM binding intensity (ln)
1,AAAGAAGGGAAACACACACACACACCCACAAAAAAA [CACACA_site3766],7.04
2,AATAAAAAAAAAATAAATTTAATAATAATAATAAAA [CACACA_negctrl_site569],6.64
3,TTTATATATTTTAGGAGTACATTAAATTATACCTTA [XGTACX_site5600],7.24
4,TGTATATATATTTATGCATGCTGTGTGTATTCTTTT [TGCATGCA_site74],6.9
5,ATTAATATTTAGACTTGTACATATATAATATATGTC [XGTACX_site3766],6.88
6,ATAAAATATCAATACCGTACACAAGCAGGTAAAATA [XGTACX_site3719],6.87
7,CTTTTTTGTAATAACACACACACAAACAGAAAAAAT [CACACA_site2075],7.55
8,AATATAAATATAAATTGTACTTAAAAATTTCACGCA [XGTACX_site5234],6.91
9,TTAAAAAACTATAATACACACCAAAAATATGCACAT [CACACA_site7079],9.04
10,TTTCGTTGTGTATTTTGTACATATTTTTAATTATAT [XGTACX_site6687],7.23
11,TCCTTTTGAACCCTTTTTCTCACAAGACCTTTATAT [TGCATGCA_negctrl_site413],7.05
12,AAGAAAAAGATGCGCATACACACAGATGAATAACAA [CACACA_site1627],7.15
13,TTTCTTTTTTAAATTAAAATTTTTTTTTTTTTCGGT [TGCATGCA_negctrl_site52],6.67
14,TTATTTCAAAGTTGTTGTACAAAAATATATTTATAA [XGTACX_site5226],7.13
15,AAAAAAATAATGTACACACACATATATGTTTATATA [CACACA_site6234],7.12
16,AATTAAAAAGTTTTTAATGTTTTTAATTTTTTCCAC [XGTACX_negctrl_site423],7
17,AAAGGTGTATTTAATACACACGTGTCATTAAAATTG [CACACA_site4508],6.74
18,TATATAAATTATGTGAGTACATAATTTAGAAGGAAC [XGTACX_site2807],7.33
19,TTCTTTTTTATTTATACATGCAATAAAAAATTGATT [TGCATGCA_site730],7.27
20,TTTTTTTAAAACAAAAAAAAAAAAAAAAAAAAAAAA [TGCATGCA_negctrl_site418],6.78
21,AATAAACATTATTTTCGTATTCCAATTCTTTTTTTT [XGTACX_negctrl_site374],6.79
22,AAGAGAGAGAAATATGCACACATAAGGGAAATAAAT [CACACA_site8300],7.41
